The results in this text go back to publication PMC10668032.

The other results are listed elsewhere or left out. At the low end of the ranking, values are background and their order means little.

This assay has as its target SIX1 homeodomain (reference allele) (UniProt Q15475). Briefly: universal protein binding microarray. Particulars: Universal all-10-mer PBM (8x60K, AMADID 030236), 300 nM GST-tagged protein, Alexa Fluor 488 anti-GST; buffer, salt, pH and temperature not stated; high values mean tight binding; most listed sequences are background and not binding sites; double strand, one strand shown.
Take CAGCCTTA: the binding signal is -0.149 E-score.
For CACTGTAG, the binding signal is 0.072 E-score.
Turning to CTTTGTTC, the binding signal was -0.244 E-score.
CTGTTATC: the binding signal turned out to be 0.0618 E-score.
CAGGCTCG: the binding signal is -0.0782 E-score.
To ATTTTGTC belongs -0.238 E-score; to AGAGGCGA, -0.202 E-score; to ACGGTGGC, -0.126 E-score.
Regarding CGTTAAAA, the binding signal is -0.283 E-score.
Regarding AAGTGGTC, the binding signal is -0.132 E-score.
Then AACAGCTA, with 5e-05 E-score.
Turning to ACATGGCA, the binding signal was 0.00146 E-score.
Take GTCCTGGA: the binding signal is -0.191 E-score.
Consider ACATTCAG, for which the binding signal is -0.101 E-score.
For ATCGTTGG, the binding signal was 0.205 E-score.
As to CCTGCACG, the binding signal is -0.0523 E-score.
To AGGGACCT belongs -0.017 E-score; to CAGAGTTA, -0.185 E-score.
As to AAGTGGCC, the binding signal was -0.189 E-score.
Take CAGGTTGC: the binding signal is -0.139 E-score.
AAGAACCA: the binding signal is -0.187 E-score.
TCTCGACA: the binding signal worked out at 0.0451 E-score.
In the case of TAGCAGCA, the binding signal is -0.136 E-score.
Turning to ATCCCGGA, the binding signal amounted to 0.196 E-score.
For GTAGTACA, the binding signal was -0.0431 E-score.
To CAATACTA belongs 0.262 E-score.
Consider CAAGGCCA, for which the binding signal was -0.144 E-score.
As for TGCCAACA, the binding signal is -0.187 E-score.
Take AATACTCA: the binding signal was determined as 0.255 E-score.
For the sequence ATTGGGGG, the binding signal is 0.152 E-score.
Consider GCTGAGAA, for which the binding signal was -0.0745 E-score.
To AAGTGAAT belongs 0.0397 E-score; to CCCACTCC, 0.0876 E-score; to ATGCATCG, -0.00749 E-score.
Take CGATCGAC: the binding signal was 0.0875 E-score.
As for ATAAGCGG, the binding signal was -0.107 E-score.
To CCAATATA belongs 0.0646 E-score; to AGACACGG, 0.119 E-score.
For the sequence ACAACATA, the binding signal turned out to be 0.103 E-score.
Take AGTCCCTG: the binding signal is -0.214 E-score.
As for AGCTAGAA, the binding signal is -0.136 E-score.
Regarding GACTCAGA, the binding signal was -0.171 E-score.
Take GATAATGC: the binding signal was 0.16 E-score.
As to AGGTGGAG, the binding signal is -0.235 E-score.
To CTTTGTTA belongs -0.174 E-score; to CCATTGGA, -0.076 E-score; to GCCCTCTA, -0.192 E-score.
For the sequence ATCCGGGG, the binding signal came to 0.418 E-score.
As for GCCCCGCA, the binding signal is -0.149 E-score.
To GAGATGGC belongs 0.0997 E-score; to AACAATTG, -0.128 E-score; to CTTAGTTC, -0.12 E-score.
Then CCCCAGGC, with -0.0557 E-score; and CTTAAGAC, with -0.0562 E-score.
Then TAGGATCA, with 0.409 E-score.
Consider ATAGTTAC, for which the binding signal was 0.0991 E-score.
Consider CGGAAAAG, for which the binding signal is -0.17 E-score.
With GCAACTGA, the binding signal is 0.053 E-score.
To GTTCGAAA belongs -0.168 E-score; to TGTTAGAA, -0.159 E-score; to CGGCAACG, -0.0865 E-score.
Regarding TTATAAAA, the binding signal is -0.234 E-score.
Take TGAAGCAA: the binding signal was -0.147 E-score.
On to TAGAAGGA, for which the binding signal is 0.0376 E-score.
To CTTGCCGC belongs -0.203 E-score; to GCAGTGGA, -0.165 E-score.
As for CTCCCGGA, the binding signal came to 0.141 E-score.
As to ATTGTATG, the binding signal was 0.0928 E-score.
Regarding AGGGGGGC, the binding signal was -0.189 E-score.
CGTATTTC: the binding signal is -0.0214 E-score.
Then ATGCGGAG, with -0.137 E-score; and ACAGCCCT, with -0.237 E-score; and AACCTAGC, with 0.0239 E-score.
For CAGCATAA, the binding signal was -0.106 E-score.
On to ACCAAGCG, for which the binding signal was -0.0196 E-score.
To CAGGGCCA belongs -0.228 E-score; to CGCCGAAA, -0.0834 E-score; to ACAAAGGC, -0.334 E-score.
With ACCTGTCG, the binding signal is -0.0198 E-score.
To ATACCAGC belongs 0.304 E-score.
Turning to CGTGCACC, the binding signal was -0.111 E-score.
To AGAGGTGA belongs 0.0642 E-score; to ATTAGGCC, 0.0175 E-score.
For the sequence CGCTTGAC, the binding signal was -0.21 E-score.
As to ATGATTGA, the binding signal came to 0.0722 E-score.
To GTAGGGCA belongs -0.0697 E-score.
Regarding TCAATGGA, the binding signal was -0.0709 E-score.
As for AATCCTTG, the binding signal amounted to 0.0307 E-score.
Regarding TCGGCAGA, the binding signal turned out to be 0.113 E-score.
In the case of ATCGACCC, the binding signal stood at 0.243 E-score.
For CATGAGCC, the binding signal stood at 0.118 E-score.
Then CAGAGCCG, with -0.147 E-score; and CGGGAGCA, with -0.1 E-score.
To CTATCATA belongs 0.341 E-score; to TAAGTCCA, -0.129 E-score.
On to AACATGAA, for which the binding signal is -0.177 E-score.
Turning to CAAATATC, the binding signal amounted to 0.21 E-score.
As for ACGACGGA, the binding signal is -0.113 E-score.
CGAGGCGA: the binding signal was 0.125 E-score.
With ACGGCCTC, the binding signal is -0.144 E-score.
Consider CCCGACGC, for which the binding signal was -0.135 E-score.
With GTAACACA, the binding signal was -0.0821 E-score.
Consider TAGGGATA, for which the binding signal turned out to be 0.41 E-score.
GTTCAATA: the binding signal is 0.143 E-score.
Turning to TATTAATA, the binding signal amounted to 0.248 E-score.
In the case of CCTAGAAA, the binding signal is -0.248 E-score.
For CTTTAAAA, the binding signal is -0.215 E-score.
Turning to CCGGTTAG, the binding signal was -0.0823 E-score.
With TGATAACA, the binding signal is -0.0289 E-score.
Turning to CGAATCCC, the binding signal was determined as 0.117 E-score.
Take AGCGGGAG: the binding signal was -0.143 E-score.
To CGGTCGGA belongs 0.125 E-score; to GTTCTACA, -0.0627 E-score; to GGGGCGAA, -0.135 E-score.
With GTCCTGCA, the binding signal was -0.229 E-score.
Take CTAATAAG: the binding signal is -0.0962 E-score.
To AAAACGCA belongs -0.116 E-score; to AAGATCCC, 0.243 E-score; to TGGGCTAA, -0.19 E-score.
GTGAAACA: the binding signal is -0.0686 E-score.
CCAGGGCA: the binding signal was -0.0668 E-score.
With TCTTGACA, the binding signal amounted to 0.0127 E-score.
In the case of CAACTGTC, the binding signal is -0.207 E-score.
Then TCACATCA, with 0.109 E-score; and CTTTAGTC, with -0.17 E-score.
In the case of AGAAATAA, the binding signal is -0.0857 E-score.
Take CATTTGGG: the binding signal was -0.0944 E-score.
Regarding GACATACC, the binding signal was -0.033 E-score.
Turning to CAGCAAGG, the binding signal stood at 0.00366 E-score.
As to GGCACGTA, the binding signal was -0.00795 E-score.
Take GCGGGTAC: the binding signal is 0.0364 E-score.
Then ACTTGTCT, with -0.159 E-score; and AGTGATGC, with 0.0565 E-score; and CGGACGAC, with -0.00728 E-score.
Take TGCGCACA: the binding signal was -0.134 E-score.
In the case of AATCTTTG, the binding signal is -0.146 E-score.
Then CAAGCTCG, with -0.0293 E-score; and GAACCCTA, with 0.095 E-score; and GCGTGGAC, with -0.177 E-score.
To ATGTGGCA belongs -0.161 E-score.
In the case of AGCTGGCC, the binding signal is -0.276 E-score.
Take TACGCGTA: the binding signal amounted to 0.125 E-score.
Turning to CACAAGTA, the binding signal was found to be 0.0172 E-score.
For TCACCTGA, the binding signal was 0.165 E-score.
ACTCCCAC: the binding signal is -0.0948 E-score.
For ACTATCGG, the binding signal is 0.122 E-score.
Consider CAAACCCC, for which the binding signal is 0.101 E-score.
With CTGCTCAC, the binding signal was -0.014 E-score.
To ACATTCGG belongs 0.132 E-score; to CAGAACAG, -0.176 E-score.
Regarding CTAATTGA, the binding signal came to 0.113 E-score.
As for ATTCGACG, the binding signal is -0.158 E-score.
As for ATAAGCTA, the binding signal is -0.0406 E-score.
On to CTCTTAAG, for which the binding signal was -0.026 E-score.
Turning to GCTGACTA, the binding signal is -0.142 E-score.
Take GAAGGCGC: the binding signal is -0.0979 E-score.
Take CGTTGCCC: the binding signal is -0.232 E-score.
To AGTTGCGG belongs -0.096 E-score.
Then AGAGCCTG, with -0.0577 E-score; and ACGCGGAG, with -0.108 E-score; and CGTACTCA, with -0.0788 E-score.
For the sequence CGCATTGC, the binding signal is -0.0165 E-score.
With CTCGTCGA, the binding signal was -0.258 E-score.
With CGTACAGC, the binding signal was -0.185 E-score.
With CCTGTCAG, the binding signal was determined as 0.033 E-score.
With CCCTGCCA, the binding signal was -0.226 E-score.
Then ACTGTTCG, with -0.0188 E-score.
Consider CAACCGTG, for which the binding signal is -0.0206 E-score.
As for AAGATGCA, the binding signal stood at 0.0379 E-score.
To GCGGCATA belongs 0.0603 E-score; to ACATGGGA, 0.128 E-score.
To CCGACCAA belongs 0.0118 E-score.
